Test results: PubChem BioAssay AID2675 (National Center for Advancing Translational Sciences (NCATS), 2010)
Hit rate of the full screen: of about 280,000 compounds, about 100 (0.036%) were called active. Inconclusive results, whose numbers are uncertain, are shown with a selection of clear calls. Calls come from the whole dose curve; as a rule, active = well fitted inhibition curve with a large enough effect in the signal ratio, with a control signal flat (not every such curve was filed as active); inconclusive = small, poorly fitted or top-dose-only effect, or effect the other way, or a change in a side signal; inactive = no such curve, though single readings can be large or run the other way; the % refers to the signal ratio. A potency beside an inconclusive call is a rough fit, not a confirmed value. A note “side channel” means that the fit belongs to a control or component signal, not to the main read-out.
Potency is the fitted concentration of half-maximal effect; tags give direction and shape of the fitted curve or compound fluorescence and quenching.

These compounds were tested against Muscleblind-like protein 1 (Homo sapiens) (UniProt Q9NR56) (assay: qHTS Assay for Inhibitors of MBNL1-poly(CUG) RNA binding). Conditions: TR-FRET MBNL1-His/biotin-(CUG)12 binding, 665/545 ratio; series mostly up to 57.5 µM.
Chain of UniProt Q9NR56 (Q9NR56 whole entry, looked up): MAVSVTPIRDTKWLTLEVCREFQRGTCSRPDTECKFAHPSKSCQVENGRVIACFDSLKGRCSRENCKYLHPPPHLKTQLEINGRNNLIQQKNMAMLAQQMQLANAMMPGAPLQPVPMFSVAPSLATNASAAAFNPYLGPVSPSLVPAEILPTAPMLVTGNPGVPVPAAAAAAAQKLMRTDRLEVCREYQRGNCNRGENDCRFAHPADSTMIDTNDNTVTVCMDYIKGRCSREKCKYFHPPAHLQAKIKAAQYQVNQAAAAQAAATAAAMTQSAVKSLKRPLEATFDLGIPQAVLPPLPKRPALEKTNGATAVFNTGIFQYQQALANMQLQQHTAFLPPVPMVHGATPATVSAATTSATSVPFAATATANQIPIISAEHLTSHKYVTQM
Outline: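 Compounds (final 92 nM to 58 uM) are added to His-tagged MBNL1 and biotin-(CUG)12, then terbium anti-His antibody and streptavidin-XL665 (5 nM final). After 60 min at room temperature, the 665/545 nm ratio is read.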
In the case of `COc1ccc(/C=N/OC(=O)c2ccc(Cl)cc2)c(Cl)c1OC`, the Potency is reported as “inactive”.
With `Cc1csc(NC(=O)c2ccccc2O)n1` the Potency was “inactive”.
With `Cc1ccc(/C=N/n2cc(-c3ccccc3)[nH]c2=S)s1` the Potency was “inactive”.
With `Cc1nnc(SCC(=O)NC(=O)Nc2ccc3c(c2)OCCO3)s1` the Potency was “inactive”.
In the case of `COc1ccccc1NC(=O)Cn1nnc(-c2ccccc2NC(=O)c2cc3ccccc3oc2=O)n1`, the Potency is reported as “inactive”.
`CCOC(=O)N1CCC(NC(=O)c2ccc3c(c2)sc2nc(-c4ccccc4)cn23)CC1` was tested, and the Potency was “inactive”.
With `CCOC(=O)C1CCN(C(=O)CNC(=O)c2nn(-c3ccc(OC)c(OC)c3)c(=O)c3ccccc23)CC1` the Potency was inconclusive: 25.1 µM [quencher, side channel, partial curve].
For `Cc1ccccc1NC(=O)CCNS(=O)(=O)c1cccc2nsnc12`, the Potency was inconclusive: 14.1 µM [quencher, side channel, partial curve].
`CCCC[C@@H]1C[C@H]1[C@@H](NC(=O)c1ccco1)c1ccc(Cl)cc1` was tested, and the Potency was inconclusive: 200 µM [inhibitor, partial curve, poor fit].
In the case of `O=C1N(c2ccc(Cl)cc2)C(c2ccccc2)N2CCCN12` (configuration not stated), the Potency is reported as inconclusive: 0.1 µM [fluorescent, side channel, full curve, poor fit].
`Cc1cccc(OCC(O)CN2CCOCC2)c1` (configuration not stated) was tested, and the Potency was “inactive”.
In the case of `Cc1ccc(NC(=O)c2ccc(NCc3ccco3)c([N+](=O)[O-])c2)cc1Cl`, the Potency is reported as inconclusive: 1.58 µM [fluorescent, side channel, partial curve].
With `CN1CCC(N(C)C(=O)/C=C/c2cn(-c3ccccc3)nc2-c2cccs2)CC1` the Potency was inconclusive: 25.1 µM [quencher, side channel, partial curve].
In the case of `CCOc1ccc(N2C(=O)C(Cl)=C(N3CCOCC3)C2=O)cc1`, the Potency is reported as inconclusive: 12.6 µM [quencher, side channel, partial curve].
With `Cn1c(=O)c([N+](=O)[O-])c(NC2CCS(=O)(=O)C2)c2ccccc21` (configuration not stated) the Potency was inconclusive: 20 µM [quencher, side channel, single point].
`COc1ccc(CC(=O)Nc2cccc(SC)c2)cc1OC` was tested, and the Potency was “inactive”.
For `Cc1ccc(NC2=C(N3CCCCC3)C(=O)c3ccccc3C2=O)cc1`, the Potency was inconclusive: 15.8 µM [quencher, side channel, partial curve].
With `Cc1c(NS(C)(=O)=O)cccc1-c1nc2cccnc2s1` the Potency was “inactive”.
With `Fc1ccc(C2=CC(c3ccco3)n3ncnc3N2)cc1` (configuration not stated) the Potency was inconclusive: 39.8 µM [quencher, side channel, single point].
For `COc1ccc(CNc2cc(C)ccn2)cc1`, the Potency was “inactive”.
In the case of `Cc1cc(NC(=O)CCN2C(=O)/C(=C/c3ccccc3Cl)SC2=S)no1`, the Potency is reported as inconclusive: 0.0891 µM [fluorescent, side channel, full curve].
In the case of `CC1=C(C(=O)N2CCOCC2)C(c2ccc(Br)cc2)NC(=S)N1c1ccccc1` (configuration not stated), the Potency is reported as inconclusive: 3.55 µM [quencher, side channel, full curve].
With `Cc1cccc(OCCNc2cc(N3CCN(CCO)CC3)ccc2[N+](=O)[O-])c1` the Potency was inconclusive: 14.1 µM [activator, partial curve].
For `Cc1ccc2c3c1C(=O)C(=O)N3C(C)(C)CC2C` (configuration not stated), the Potency was inconclusive: 12.6 µM [quencher, partial curve].
`Cc1ccc(C(=O)C[n+]2cccc3ccccc32)cc1` was tested, and the Potency was inconclusive: 15.8 µM [quencher, side channel, partial curve].
With `Cc1ccc(C(=O)ON=C2CCN(c3ccc([N+](=O)[O-])cc3)CC2)cc1` the Potency was inconclusive: 31.6 µM [quencher, side channel, single point].
In the case of `N#Cc1c(N)nc(SCC(=O)OCc2ccccc2)c(C#N)c1-c1ccco1`, the Potency is reported as “inactive”.
`O=C(/C=C/c1cccc([N+](=O)[O-])c1)NC(=S)Nc1ccc(CN2CCOCC2)cc1` was tested, and the Potency was “inactive”.
For `CCOc1ccc2[nH]c(=O)c(CN(Cc3ccco3)Cc3nnnn3Cc3ccccc3)cc2c1`, the Potency was inconclusive: 12.6 µM [quencher, side channel, partial curve].
For `CC(=O)c1cccc(NC(=O)CC2SC(N3CCCCC3)=NC2=O)c1` (configuration not stated), the Potency was “inactive”.
In the case of `O=C(CCN1C(=O)c2ccccc2C1=O)OCN1C(=O)c2ccccc2C1=O`, the Potency is reported as inconclusive: 17.8 µM [quencher, side channel, partial curve, poor fit].
In the case of `CCOC(=O)C1C(c2ccc3c(c2)OCO3)NC(=O)NC1(O)C(F)(F)F` (configuration not stated), the Potency is reported as “inactive”.
With `O=C(NCC1CCCN(Cc2ccc3nonc3c2)C1)c1ccc(F)cc1` (configuration not stated) the Potency was inconclusive: 15.8 µM [quencher, side channel, partial curve].
With `CCn1c(=O)c(C(=O)NCc2ccccc2)c(O)c2ccccc21` the Potency was “inactive”.
With `CC(=O)Nc1ccc(NC(=O)C2CCC(CNS(=O)(=O)c3cccc4nsnc34)CC2)cc1` (configuration not stated) the Potency was inconclusive: 10 µM [quencher, side channel, partial curve].
For `CC1=NN(c2ccc(C)cc2C)C(=O)C1C(c1ccccc1O)C1C(=O)N(c2ccc(C)cc2C)N=C1C` (configuration not stated), the Potency was inconclusive: 1.41 µM [quencher, side channel, full curve, poor fit].
`NCCCC[C@@H]1NC(=O)[C@H](CCC(=O)O)NC(=O)c2cc([N+](=O)[O-])cc(I)c2SC[C@@H](C(=O)NCC(N)=O)NC1=O` was tested, and the Potency was inconclusive: 8.91 µM [quencher, partial curve].
`CC(C)c1c(C(=O)N/N=C/c2cccs2)nnn1-c1nonc1N` was tested, and the Potency was inconclusive: 25.1 µM [quencher, side channel, partial curve].
With `COCCNC(=O)c1cc2cc(Br)cc(OC)c2oc1=O` the Potency was inconclusive: 12.6 µM [quencher, side channel, partial curve, poor fit].
In the case of `Cc1cc(C(=O)N/N=C/c2ccc(O)c([N+](=O)[O-])c2)n[nH]1`, the Potency is reported as inconclusive: 15.8 µM [quencher, side channel, partial curve].
For `COc1ccc([N+](=O)[O-])cc1NC(=O)CC(c1ccccc1)c1ccccc1`, the Potency was inconclusive: 0.0891 µM [fluorescent, side channel, full curve].
With `Cc1ccccc1C(=O)c1cccn1CC(=O)NCCCN1CC(C)CC(C)C1` (configuration not stated) the Potency was “inactive”.
`CC(C)(C)NC(=O)C1CCC(CNS(=O)(=O)c2cccc3nsnc23)CC1` (configuration not stated) was tested, and the Potency was inconclusive: 14.1 µM [quencher, partial curve].
With `Cc1ccc(S(=O)(=O)N2CCc3c2cc([N+](=O)[O-])cc3[N+](=O)[O-])cc1` the Potency was inconclusive: 3.55 µM [quencher, side channel, full curve].
`Cc1noc(C)c1CN1C(=O)c2ccc([N+](=O)[O-])cc2C1=O` was tested, and the Potency was inconclusive: 7.94 µM [quencher, side channel, partial curve].
`O=C(N/N=C/c1ccc(Sc2ccccn2)o1)c1cc2ccccc2cc1O` was tested, and the Potency was “inactive”.
`O=C(Nc1cnc2ccccn2c1=O)c1ccc(Cl)cc1Cl` was tested, and the Potency was inconclusive: 3.16 µM [quencher, side channel, full curve].
For `OCCC#Cc1ccc(CN2CCN(Cc3ccsc3)C(CCO)C2)cc1` (configuration not stated), the Potency was inconclusive: 7.94 µM [quencher, side channel, partial curve].
`Cc1nn(C)cc1/C=N\NC(=O)Cc1ccc([N+](=O)[O-])cc1` was tested, and the Potency was inconclusive: 11.2 µM [quencher, side channel, partial curve].
`COc1ccc2cc(CN(CCCN3CCOCC3)Cc3nnnn3C3CCCC3)c(=O)[nH]c2c1` was tested, and the Potency was inconclusive: 14.1 µM [quencher, side channel, partial curve].
For `CC(C)c1ccc(OCc2ccc(C(=O)N3CCN(c4ccccn4)CC3)cc2)cc1`, the Potency was “inactive”.
With `Cc1cc([N+](=O)[O-])ccc1NC(=O)CSc1nccc(=O)[nH]1` the Potency was inconclusive: 28.2 µM [quencher, side channel, partial curve].
`CCCCC1=NN(C(=O)c2cocc2C)C(O)(C(F)(F)F)C1` (configuration not stated) was tested, and the Potency was inconclusive: 5.62 µM [quencher, side channel, full curve].
With `C=CCn1c(CNC(=O)c2cccs2)n[nH]c1=S` the Potency was inconclusive: 0.316 µM [fluorescent, side channel, full curve, poor fit].
In the case of `O=C(O)c1cccc(-c2ccc(/C=N/Nc3nn[nH]n3)o2)c1`, the Potency is reported as inconclusive: 31.6 µM [quencher, side channel, single point].
With `CC(C)c1cc(C(=O)NNC(=S)NC2CCCCC2)cs1` the Potency was “inactive”.
With `C[n+]1cc2c3c(ccc2c2ccc4cc5c(cc4c21)OCO5)OCO3` the Potency was inconclusive: 39.8 µM [fluorescent, side channel, single point].
`COc1cc(CN2CCN(Cc3ccc([N+](=O)[O-])cc3)CC2)c([N+](=O)[O-])cc1OC` was tested, and the Potency was inconclusive: 14.1 µM [quencher, side channel, partial curve].
For `COc1ccc(/C=N/NC(=O)C(C)Sc2ccccn2)cc1[N+](=O)[O-]` (configuration not stated), the Potency was inconclusive: 15.8 µM [quencher, side channel, partial curve].
With `N#Cc1cc(C#N)c(N2CCN(c3ccccn3)CC2)nc1N` the Potency was inconclusive: 39.8 µM [fluorescent, side channel, single point].
In the case of `Cc1cccc(NS(=O)(=O)c2cc(C(=O)N3CCc4ccccc4C3)ccc2Cl)c1C`, the Potency is reported as “inactive”.
In the case of `COc1ccc(C2C(C#N)=C(N)Oc3c2oc(CO)cc3=O)cc1` (configuration not stated), the Potency is reported as inconclusive: 22.4 µM [quencher, side channel, single point].
